# Results: patent US10941114B2, “Small molecule lipid II inhibitors” (University Of Maryland, Baltimore, priority 2015, dated 2021)
# Structures can show the parent of a compound that is named as a salt. For some of these results: For at least one compound, name, drawing or mass did not settle the structure. Some compounds share one wording; it may come from a single statement. Some entries share one result that the patent states for a list of compounds.
# Experiment: Pharmacokinetic study in mice (plasma concentration by LC/MS/MS)
# Conditions: single dose of 10 mg/kg IV
row,Structure (SMILES),maximum concentration relative to the MIC for S. aureus and E. faecalis
1,CC(C)C[n+]1c(/C=C/c2ccc(N(C)C)cc2)cc(-c2ccc(Br)cc2)cc1-c1ccc(Br)cc1.[I-] [Compound 1],more than 10 times the MIC

# Experiment: Surface Plasmon Resonance determination of Lipid II binding
# Conditions: SPR, immobilized 3-LII, compounds at 10 μM
# Method: Short-chain water-soluble LII containing a lipid tail of three isoprene units (3-LII) was generated and purified essentially according to methods known in the art. See Breukink et al., Lipid II is an intrinsic component of the pore induced by nisin in bacterial membranes. J. Biol. Chem. 278(22):19898-19903, 2003, the contents of which are hereby incorporated by reference. Typically, M. flavus vesicles (120 μmol lipid-Pi) were incubated together with 500 μmol UDP-GlcNAc, 500 μmol UDP-MurNAC-pentapeptide and 400 μmol farnesyl phosphate in 100 mM Tris-HCl pH 8.0, 5 mM MgCl2. The incubation period was approximately two hours at room temperature for 3-LII (3-P). The synthesis of 3-Lipid II was followed by RP-8 reversed phase TLC (Merck™) developed with 75% methanol. For purification, the membranes were removed by centrifugation at 40,000×g; the supernatant was collected and loaded on a C18 HPLC column and eluted with a linear gradient from 50 mM ammonium bicarbonate to 100% methanol in 30 minutes. Farnesyl-Lipid II (3-Lipid II) eluted at approximately 60% methanol. Its identity was confirmed by mass spectroscopy.
# Surface Plasmon Resonance binding experiments were carried out on a BIAcore T100 system (BIAcore™ Inc., Piscataway, N.Y.) at 25° C. The assay buffer was 10 mM HEPES, 150 mM NaCl, 0.05% surfactant P20, pH 7.4 (+3 mM EDTA) supplemented with 10% DMSO. 3-Lipid II (50 RUs) was immobilized on CMS sensor chips using the amine-coupling chemistry recommended by the manufacturer. For initial determination of binding, compounds were introduced into the flow-cells (30.mu·1/min) in the running buffer at 10 μM. Resonance signals were corrected for nonspecific binding by subtracting the background of the control flow-cell. Binding to immobilized 3-LII on the chip surface was determined and scored “yes” in Table 5 when more than 20 Resonance Units or RUs were detected. Detection of less than 20 RUs was scored as “no”, meaning no significant binding to LII. After each analysis, the sensor chip surfaces were regenerated with 50 mM NaOH for 30 seconds at a flow rate 100 μL/min, and equilibrated with the buffer prior to next injection. For binding kinetics studies, binding isotherms were analyzed with manufacturer-supplied software for BIAcore™ T100.
row,Structure (SMILES),Lipid II Binding
1,"CN(C)c1ccc(/C=C/C=C/c2cc(-c3ccccc3)cc(-c3ccccc3)[o+]2)cc1 [2-((1E,3E)-4-(4-(dimethylamino)phenyl)buta-1,3-dien-1-yl)-4,6-diphenyl pyrylium boron tetrafluoride salt]",yes (scored “yes” in Table 5 when more than 20 Resonance Units or RUs were detected)
2,"CC(C)(C)c1ccc(-c2cc(/C=C/c3c[nH]c4ccccc34)[o+]c(-c3ccc(C(C)(C)C)cc3)c2)cc1 [(E)-2-(2-(1H-mdol-3-yl)vinyl)-4,6-bis(4-(tert-butyl)phenyl) pyrylium boron tetrafluoride salt]",yes (scored “yes” in Table 5 when more than 20 Resonance Units or RUs were detected)
3,"Cc1cc(-c2ccccc2)cc(-c2ccccc2)[o+]1 [2-methy1-4,6-diphenylpyrylium boron tetrafluoride salt]","no (Detection of less than 20 RUs was scored as “no”, meaning no significant binding to LII)"
4,"CCc1ccc(-c2cc(/C=C/c3cc4c5c(c3)CCCN5CCC4)[o+]c(-c3ccc(CC)cc3)c2)cc1 [drawing 120, (E)-2,4-bis(4-ethylphenyl)-6-(2-(1,2,3,5,6,7-hexahydropyrido [3,2,1-ij]quinolin-9-yl)vinyl)pyrylium boron tetrafluoride salt]",yes (scored “yes” in Table 5 when more than 20 Resonance Units or RUs were detected)
5,"COc1ccc(-c2cc(C)[o+]c(-c3ccc(OC)cc3)c2)cc1 [2,4-bis(4-methoxyphenyl)-6-methylpyrylium boron tetrafluoride salt]","no (Detection of less than 20 RUs was scored as “no”, meaning no significant binding to LII)"
6,"Cc1ccc(-c2cc(/C=C/C=C/c3ccc(N(C)C)cc3)[o+]c(-c3ccc(C)cc3)c2)cc1 [2-((1E,3E)-4-(4-(dimethylamino)phenyl)buta-1,3-dien-1-yl)-4,6-di-p-tolylpyrylium boron tetrafluoride salt]",yes (scored “yes” in Table 5 when more than 20 Resonance Units or RUs were detected)
